# According to PMC4336329 (PLoS ONE, 2015):
# Out of some 310,000 compounds screened, about 2,200 (0.71%) showed an effect of 50% or more. The effect is printed as a negative number. The list shows a part of the results.
# Target: human ether-à-go-go-related gene (hERG) potassium channel (human, UniProt Q12809)
# Assay: primary screen, population patch clamp on CHO cells stably expressing hERG
# human ether-à-go-go-related gene (hERG) potassium channel, sequence (Q12809 whole entry, looked up): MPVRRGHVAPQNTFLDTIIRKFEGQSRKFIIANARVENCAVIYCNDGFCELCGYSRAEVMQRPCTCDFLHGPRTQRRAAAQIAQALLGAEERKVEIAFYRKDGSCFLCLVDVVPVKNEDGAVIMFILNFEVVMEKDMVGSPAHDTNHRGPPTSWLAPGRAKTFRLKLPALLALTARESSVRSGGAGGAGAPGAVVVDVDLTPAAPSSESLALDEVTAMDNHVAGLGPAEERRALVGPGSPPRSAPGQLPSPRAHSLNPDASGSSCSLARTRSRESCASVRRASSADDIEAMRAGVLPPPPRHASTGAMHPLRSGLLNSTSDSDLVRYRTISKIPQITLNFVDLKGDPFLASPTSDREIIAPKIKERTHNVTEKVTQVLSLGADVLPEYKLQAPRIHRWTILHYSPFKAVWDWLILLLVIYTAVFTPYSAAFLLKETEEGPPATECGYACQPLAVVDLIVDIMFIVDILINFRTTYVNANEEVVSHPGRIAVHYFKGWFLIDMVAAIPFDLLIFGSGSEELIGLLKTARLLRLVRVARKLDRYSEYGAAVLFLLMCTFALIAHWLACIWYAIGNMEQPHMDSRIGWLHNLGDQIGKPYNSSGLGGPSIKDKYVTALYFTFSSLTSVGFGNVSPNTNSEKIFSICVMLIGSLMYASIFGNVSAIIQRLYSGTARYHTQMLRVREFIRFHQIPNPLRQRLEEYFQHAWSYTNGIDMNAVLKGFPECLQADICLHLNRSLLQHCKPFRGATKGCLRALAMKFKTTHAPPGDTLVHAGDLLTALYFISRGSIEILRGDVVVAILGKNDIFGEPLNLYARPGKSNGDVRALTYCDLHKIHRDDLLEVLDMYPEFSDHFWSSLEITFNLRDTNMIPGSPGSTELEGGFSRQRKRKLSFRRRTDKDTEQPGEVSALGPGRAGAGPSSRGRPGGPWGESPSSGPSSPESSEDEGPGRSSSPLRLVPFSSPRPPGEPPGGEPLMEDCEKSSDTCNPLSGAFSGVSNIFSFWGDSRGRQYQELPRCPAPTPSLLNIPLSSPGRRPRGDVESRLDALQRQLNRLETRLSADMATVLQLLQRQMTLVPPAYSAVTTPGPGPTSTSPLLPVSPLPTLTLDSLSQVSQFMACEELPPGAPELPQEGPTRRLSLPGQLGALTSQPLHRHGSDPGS
row,Compound,"hERG current change (%, negative = inhibition) at 1uM"
1,O=C(CSc1ccc(Cl)cc1)NC(=O)c1ccccc1,-3.31%
2,COc1ccccc1NC(=O)c1cnc2n(c1=O)CCS2,14.6%
3,COc1ccc(CCNS(=O)(=O)c2ccc(-c3ccc(=O)[nH]n3)o2)cc1OC,12.4%
4,COc1ccccc1NS(=O)(=O)c1ccc(NC(=O)CCNC(=O)c2ccco2)cc1,14.7%
5,CCNC(=O)CN(c1ccc(CC)cc1)S(C)(=O)=O,9.01%
6,CCCC(=O)N(c1ccc(OCC)cc1)C1C=CS(=O)(=O)C1 (stereo not drawn),-7.3%
7,CN1C/C(=C/c2ccncc2)C(=O)/C(=C/c2ccncc2)C1,25.8%
8,O=C(CN(C(=O)CCC(=O)Nc1ccccn1)c1ccc2c(c1)OCO2)NCc1ccc(F)cc1,12%
9,CCN(CC)C(=O)C1(P(=O)(c2ccccc2)c2ccccc2)CCC1,14.1%
10,Cc1nn(C)c(C(=O)N2CCN(C(=O)c3ccco3)CC2)c1[N+](=O)[O-],8.09%
11,CCNCc1cc(Cl)cc(OC)c1OC(C)C.Cl,4.48%
12,Cc1noc(C)c1S(=O)(=O)Nc1ccc(C(=O)N2CCc3ccccc3C2)cc1,7.27%
13,Cc1cc(C)n2cc(CSc3nncn3C)nc2n1,21.5%
14,CCCCOC(=O)Nc1nnc(CCOCC)s1,2.39%
15,CC(C)Cn1c(N)c(C(=O)COC(=O)CN2C(=O)C3CC=CCC3C2=O)c(=O)n(C)c1=O (stereo not drawn),6.92%
16,Nc1nonc1-n1nnc(C(=O)N/N=C/c2ccccc2F)c1-c1cccs1,13.3%
17,Cc1cc(/C=C2\C(=O)NC(=O)N(c3ccccc3)C2=O)c(C)n1-c1ccc(C(=O)O)c(Cl)c1,13.2%
18,CCOC(=O)CN1C(=O)S/C(=C\c2ccc(-c3cccc(C(=O)O)c3C)o2)C1=O,11.6%
19,COc1ccc(CNC(=O)CN2c3ccccc3S(=O)(=O)c3ccccc32)cc1,2.07%
20,Cn1c([O-])c(Cc2ccc(OCc3ccccc3)cc2)c(=O)n(C)c1=O.[NH4+],9.15%
21,O=C1NC(=O)N(c2cccc(Br)c2)C(=O)/C1=C/c1ccsc1,8.15%
22,CCCCn1c(N)c(N(CCOC)C(=O)c2cccc(OCc3ccccc3)c2)c(=O)[nH]c1=O,16.6%
23,Cc1ccc(NC(=O)c2cc(=O)c3ccccc3o2)c(C)c1,11%
24,Oc1ccc(Cl)cc1CNCc1ccc(Cl)cc1,21.9%
